115 sequences from the BET-seq Pho4 binding data (Le et al. 2018) can be followed below.

This is one part of the list. The energies were worked out here from pooled read counts, against the library average; single values are noisy.

The experiment deals with T1, Pho4 (S. cerevisiae) (UniProt P07270).
T1 sequence: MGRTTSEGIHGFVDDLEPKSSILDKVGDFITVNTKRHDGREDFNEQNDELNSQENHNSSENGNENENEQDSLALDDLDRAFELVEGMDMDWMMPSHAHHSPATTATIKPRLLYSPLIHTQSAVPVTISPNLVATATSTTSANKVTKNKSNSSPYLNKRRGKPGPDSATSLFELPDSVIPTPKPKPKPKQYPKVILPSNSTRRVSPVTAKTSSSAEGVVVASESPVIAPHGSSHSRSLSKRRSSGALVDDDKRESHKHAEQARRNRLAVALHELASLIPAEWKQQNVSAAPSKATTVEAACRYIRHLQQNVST
Briefly: relative binding free energy (BET-seq); higher = weaker binding. The note with it: reference: library average.
CTGTTCACGTGAAATG: the “relative binding free energy” value amounted to 0.32 kcal/mol. Consider ATGAGCACGTGGTTTT, for which the “relative binding free energy” value is -0.2 kcal/mol. The figure for TATAACACGTGGTGTT is -0.15 kcal/mol.

Regarding CGGGGCACGTGGGATG, the “relative binding free energy” value is -0.18 kcal/mol.

With TGTAACACGTGCCGTT, the “relative binding free energy” value is 0.08 kcal/mol.

As for GGGTCCACGTGTTTAA, the “relative binding free energy” value stood at 0.13 kcal/mol.

ATTTTCACGTGTAATC: the “relative binding free energy” value was determined as 0.39 kcal/mol.

Consider AGTATCACGTGCTGGC, for which the “relative binding free energy” value worked out at 0.14 kcal/mol.

As to CTGTTCACGTGGTAAT, the “relative binding free energy” value amounted to 0.27 kcal/mol. The figure for TGTAACACGTGTATGA is -0.03 kcal/mol; for AGTAACACGTGGGTCG it is -0.12 kcal/mol. The figure for ATTTTCACGTGTCGGA is 0.32 kcal/mol; for ATCGGCACGTGAGGTT it is 0.13 kcal/mol. For the sequence TATAGCACGTGATGAT, the “relative binding free energy” value amounted to 0.06 kcal/mol. As to CGTATCACGTGAGGTA, the “relative binding free energy” value was 0.25 kcal/mol.

In the case of AGCGACACGTGGGTTT, the “relative binding free energy” value is -0.1 kcal/mol.

ATGTGCACGTGCTTTT: the “relative binding free energy” value was -0.14 kcal/mol. The figure for GCGTACACGTGGGTTT is 0.11 kcal/mol; for TTTAACACGTGGCGTA it is -0.07 kcal/mol. The figure for TTAGACACGTGAGTTT is 0.3 kcal/mol. The figure for TTGTGCACGTGCACGT is -0.16 kcal/mol. Regarding GTGTTCACGTGAGATG, the “relative binding free energy” value turned out to be 0.34 kcal/mol.

Take TGCGACACGTGGGGTT: the “relative binding free energy” value was -0.04 kcal/mol.

In the case of GGGCGCACGTGCGTTT, the “relative binding free energy” value is -0.09 kcal/mol. The figure for GGGGGCACGTGACTAG is 0.19 kcal/mol; for GTATGCACGTGATGTG it is 0.03 kcal/mol. TTTTACACGTGGCGTC: the “relative binding free energy” value came to 0.24 kcal/mol. The figure for CTTGCCACGTGTTGGT is -0.12 kcal/mol; for TATTTCACGTGCGTTT it is 0.36 kcal/mol; for AGTATCACGTGACGTG it is 0.22 kcal/mol. The figure for GGTCGCACGTGTGTCA is -0.06 kcal/mol; for TAATGCACGTGGTAAA it is -0.01 kcal/mol.

In the case of GTCTTCACGTGCATTG, the “relative binding free energy” value amounted to 0.27 kcal/mol. Regarding ACAGACACGTGGAGGG, the “relative binding free energy” value came to 0.04 kcal/mol. In the case of TGGGACACGTGTTGTA, the “relative binding free energy” value stood at 0.08 kcal/mol. The figure for ATGTTCACGTGGGAGA is -0.01 kcal/mol.

Consider TAGTTCACGTGAAATG, for which the “relative binding free energy” value was determined as 0.38 kcal/mol.

With GTTAACACGTGGTGTA, the “relative binding free energy” value was determined as 0.02 kcal/mol.

Regarding GAATACACGTGGTGGT, the “relative binding free energy” value came to 0.12 kcal/mol. On to TAAAGCACGTGAGGGG, for which the “relative binding free energy” value turned out to be 0.13 kcal/mol. Regarding GGGATCACGTGGGTTA, the “relative binding free energy” value is 0.03 kcal/mol. The figure for GGGGACACGTGCTGTT is 0.01 kcal/mol; for TATGTCACGTGTTAAC it is 0.18 kcal/mol.

With GGGAGCACGTGTTTGT, the “relative binding free energy” value is -0.05 kcal/mol. Take GGTAGCACGTGACGTG: the “relative binding free energy” value was found to be 0.13 kcal/mol. Regarding ATTTACACGTGTGGCT, the “relative binding free energy” value came to 0.17 kcal/mol. The figure for GCGAGCACGTGGCGGT is -0.06 kcal/mol; for GGTGGCACGTGGTTCT it is -0.04 kcal/mol; for TGGTTCACGTGACAGG it is 0.34 kcal/mol. The figure for TGAGGCACGTGTAAGC is 0.11 kcal/mol. The figure for TAAGTCACGTGTCGGG is 0.1 kcal/mol. GTGTTCACGTGAAAGA: the “relative binding free energy” value came out at 0.38 kcal/mol. Turning to AGAGGCACGTGATAGA, the “relative binding free energy” value worked out at 0.01 kcal/mol. The figure for TGGTGCACGTGTACGG is -0.02 kcal/mol; for GGTTTCACGTGTCAAA it is 0.39 kcal/mol; for TGGTCCACGTGGTGAG it is -0.11 kcal/mol. Turning to TATTGCACGTGTCGGG, the “relative binding free energy” value turned out to be 0.04 kcal/mol. The figure for TAGGCCACGTGTTTAT is -0.04 kcal/mol; for ATTGACACGTGTGCGT it is -0.12 kcal/mol. Turning to TGTAGCACGTGACTTA, the “relative binding free energy” value was -0.01 kcal/mol.

As for GTTGTCACGTGCGGTA, the “relative binding free energy” value is 0.27 kcal/mol.

On to TGTAGCACGTGCAGTG, for which the “relative binding free energy” value is -0.01 kcal/mol. Consider GTGGACACGTGTCAGT, for which the “relative binding free energy” value is 0.01 kcal/mol.

For the sequence GTTCGCACGTGTGGGG, the “relative binding free energy” value was 0.15 kcal/mol.

As for TGTCTCACGTGTGAGG, the “relative binding free energy” value came to 0.27 kcal/mol. The figure for TATTTCACGTGGAGTG is 0.17 kcal/mol. Consider TAGGTCACGTGTACGA, for which the “relative binding free energy” value turned out to be 0.05 kcal/mol. The figure for GTGGTCACGTGATGGA is 0.33 kcal/mol; for AGTGGCACGTGGTATG it is -0.25 kcal/mol; for TGTTTCACGTGTAATT it is 0.37 kcal/mol. In the case of GTGTTCACGTGGGGTG, the “relative binding free energy” value was determined as 0.18 kcal/mol. Regarding GAGATCACGTGTGGTG, the “relative binding free energy” value was 0.22 kcal/mol.

Turning to CTTGGCACGTGGATGT, the “relative binding free energy” value was -0.03 kcal/mol. Take TTTCACACGTGTAATT: the “relative binding free energy” value is 0.23 kcal/mol.

For TTAGTCACGTGACTTA, the “relative binding free energy” value was 0.18 kcal/mol.

With AGAGTCACGTGTGGTG, the “relative binding free energy” value was 0.04 kcal/mol. For ATGGTCACGTGTCCAT, the “relative binding free energy” value was 0.23 kcal/mol. Consider GTATGCACGTGATAGT, for which the “relative binding free energy” value is 0.15 kcal/mol. The figure for TATGGCACGTGCATGG is -0.2 kcal/mol; for CGAAGCACGTGGGTGG it is -0.18 kcal/mol. In the case of AGTAGCACGTGGTCTG, the “relative binding free energy” value was -0.21 kcal/mol.

Turning to TCTTTCACGTGGTGAT, the “relative binding free energy” value is 0.33 kcal/mol. The figure for TACATCACGTGCGGTG is 0.19 kcal/mol; for ATAATCACGTGGGTAT it is -0.03 kcal/mol. The figure for AGTCGCACGTGTTATG is -0.12 kcal/mol; for GGATTCACGTGTGTGT it is 0.37 kcal/mol; for GTTGTCACGTGGTTCG it is 0.17 kcal/mol. The figure for GTACGCACGTGAATGG is 0.23 kcal/mol; for TCTGGCACGTGTGAGC it is 0.16 kcal/mol; for TTCTTCACGTGGACGG it is 0.29 kcal/mol. Turning to GTGGACACGTGGTAGG, the “relative binding free energy” value is -0.04 kcal/mol. The figure for GGGCGCACGTGTAGGC is -0.09 kcal/mol; for AGGGGCACGTGAAGAT it is 0.09 kcal/mol. The figure for CATATCACGTGTTATT is 0.15 kcal/mol. Regarding GGAACCACGTGGTGGT, the “relative binding free energy” value was -0.16 kcal/mol. With ATTTGCACGTGAATGC, the “relative binding free energy” value amounted to 0.21 kcal/mol. The figure for ATTAACACGTGATGGG is 0.18 kcal/mol; for CGATGCACGTGAGCGT it is 0.31 kcal/mol; for TCTGGCACGTGGTTAT it is -0.05 kcal/mol. As for CTTGGCACGTGGTGGG, the “relative binding free energy” value is -0.08 kcal/mol. As to TACGACACGTGAGGGT, the “relative binding free energy” value came out at 0.13 kcal/mol. The figure for TTATCCACGTGGGATA is -0.06 kcal/mol; for TGTAGCACGTGTAGTA it is -0.02 kcal/mol. The figure for TCAGGCACGTGTGGGC is 0 kcal/mol; for GTTAACACGTGTCATG it is 0.06 kcal/mol. Regarding AGATTCACGTGTGATG, the “relative binding free energy” value was 0.22 kcal/mol. The figure for GTTATCACGTGGAGGT is 0.2 kcal/mol; for TGCGACACGTGCGTGG it is -0.04 kcal/mol. The figure for CTGGGCACGTGATGCG is -0.08 kcal/mol; for AGGGTCACGTGGGCAC it is 0.02 kcal/mol. Take GCTGTCACGTGAATTG: the “relative binding free energy” value amounted to 0.24 kcal/mol.

In the case of GAAGTCACGTGAGATG, the “relative binding free energy” value was found to be 0.37 kcal/mol. Consider GTGCACACGTGGATTG, for which the “relative binding free energy” value turned out to be 0.05 kcal/mol. The figure for TATTCCACGTGGCTTT is 0.06 kcal/mol; for AGAGTCACGTGAGTCT it is 0.32 kcal/mol.
